# Results from PMC4336329 (PLoS ONE, 2015).
# The campaign covered roughly 310,000 compounds. About 14,000 (4.5%) showed an effect of 50% or more. Effects have a minus sign here. The list shows a part of the results.
# Molecular target: human ether-à-go-go-related gene (hERG) potassium channel (human, UniProt Q12809)
# Assay: primary screen, population patch clamp on CHO cells stably expressing hERG
# 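Also: peak tail current of the secondary pulse compared with the same well before compound.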
# human ether-à-go-go-related gene (hERG) potassium channel, sequence (Q12809 whole entry, looked up): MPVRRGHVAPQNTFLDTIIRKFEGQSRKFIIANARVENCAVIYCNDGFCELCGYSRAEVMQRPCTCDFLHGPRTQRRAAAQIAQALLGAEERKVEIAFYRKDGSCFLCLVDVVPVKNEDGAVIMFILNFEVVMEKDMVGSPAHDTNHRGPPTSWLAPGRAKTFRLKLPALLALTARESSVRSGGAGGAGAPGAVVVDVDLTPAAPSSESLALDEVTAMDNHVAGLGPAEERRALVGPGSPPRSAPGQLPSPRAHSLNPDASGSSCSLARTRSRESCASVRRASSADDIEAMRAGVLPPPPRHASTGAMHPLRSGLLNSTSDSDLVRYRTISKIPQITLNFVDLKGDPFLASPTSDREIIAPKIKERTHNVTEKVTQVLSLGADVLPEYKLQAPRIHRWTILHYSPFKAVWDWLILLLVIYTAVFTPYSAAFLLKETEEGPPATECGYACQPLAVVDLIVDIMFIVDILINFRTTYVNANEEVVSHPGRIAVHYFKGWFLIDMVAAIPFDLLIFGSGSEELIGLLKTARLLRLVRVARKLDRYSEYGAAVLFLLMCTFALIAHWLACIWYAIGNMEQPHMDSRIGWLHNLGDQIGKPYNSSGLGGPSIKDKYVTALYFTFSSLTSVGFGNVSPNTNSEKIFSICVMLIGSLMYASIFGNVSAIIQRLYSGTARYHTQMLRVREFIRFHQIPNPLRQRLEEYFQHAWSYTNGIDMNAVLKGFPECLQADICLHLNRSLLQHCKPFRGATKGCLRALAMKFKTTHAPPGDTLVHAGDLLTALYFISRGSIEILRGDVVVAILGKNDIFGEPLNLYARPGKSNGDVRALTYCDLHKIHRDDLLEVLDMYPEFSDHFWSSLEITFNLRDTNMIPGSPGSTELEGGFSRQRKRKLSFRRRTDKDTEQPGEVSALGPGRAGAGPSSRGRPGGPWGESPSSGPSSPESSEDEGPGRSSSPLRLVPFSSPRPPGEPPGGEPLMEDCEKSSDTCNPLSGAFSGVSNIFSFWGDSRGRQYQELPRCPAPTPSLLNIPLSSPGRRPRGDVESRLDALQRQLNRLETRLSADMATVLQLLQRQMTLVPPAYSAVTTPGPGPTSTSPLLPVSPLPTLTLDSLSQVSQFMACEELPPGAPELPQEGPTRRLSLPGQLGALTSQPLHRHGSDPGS
row,SMILES,"hERG current change (%, negative = inhibition) at 10uM"
1,COc1ccc(-n2nc3c(=O)[nH][nH]c3cc2=O)cc1,16.5%
2,On1nnc2ccc3ccccc3c21,18.2%
3,COc1cc(CN(C(=S)NCC(=O)NC2CCCC2)C2CCCC2)cc(OC)c1OC,-13.9%
4,COC(=O)C1=C(c2ccc(OCc3ccccc3)cc2)C[C@@H]2CC[C@H]1N2C(=O)NCc1ccccc1,8.42%
5,Cn1cc(C(=O)c2cccc(Cl)c2Cl)cc1C#N,-7.11%
6,CC1CC(C(F)(F)F)n2nc(C(=O)O)cc2N1 (stereo not drawn),-7.24%
7,Cn1c(=O)c2c(nc(N3CCN(c4ccccn4)CC3)n2Cc2ccccc2Cl)n(C)c1=O,-16.1%
8,O=C(CSc1nnc(CCc2ccccc2)n1-c1ccc(Cl)cc1)c1ccccc1,-8.98%
9,O=C(CN(Cc1ccccc1F)S(=O)(=O)c1ccc(Cl)cc1)NCC1CCCO1 (stereo not drawn),-30.4%
10,Cc1ccc(CN2CCN(Cc3cccn3-c3nccs3)CC2CCO)cc1 (stereo not drawn),-77.3%
11,COc1ccc(-c2nnc(SCC(=O)Nc3ccc(C)cc3)n2C)cc1,8.19%
12,CCOC(=O)N1CCN(C(=O)CNCc2cccs2)CC1.O=C(O)C(=O)O,4.34%
13,Cc1ccccc1NC(=S)N/N=C/c1ccc(O)cc1O,14.1%
14,COC(=O)C1=C(c2cccc(OC)c2OC)C[C@@H]2CC[C@H]1N2C(=O)NCCCOC(C)C,3.16%
15,COc1ccc(Cl)cc1N1C(=O)C2CCCN2C1c1sccc1C (stereo not drawn),3.88%
16,CCCCSc1ccc2nc(-c3ccc(C#N)cc3)cn2c1,-15%
17,Cc1ccc2oc(C(=O)NCc3ccc4c(c3)OCO4)c(C)c2c1,2.22%
18,CCc1cccc(C)c1NC(=O)N(C)C1CCCCC1,6.47%
19,CC(=O)OC(C(=O)N1CCOCC1)c1c(F)cccc1F (stereo not drawn),16.1%
20,CCN1CCN(c2cc(C)c3cc(NC(=S)NCCCN4CCc5ccccc5C4)ccc3n2)CC1,-9.67%
21,COc1cc2c(cc1OC)C(C1C(=O)CC(C)(C)CC1=O)N(C(=O)CCl)CC2 (stereo not drawn),-2.65%
22,CC(C)c1ccc(NC(=O)CN(Cc2ccccc2)S(C)(=O)=O)cc1,-29%
23,O=C(C1CCN(C2CCN(C/C=C/c3ccccc3)CC2)CC1)N1CCOCC1,-53.4%

row,SMILES,"hERG current change (%, negative = inhibition) at 10uM"
1,O=C(Nc1ccc(S(=O)(=O)N2CCOCC2)cc1)c1ccccc1,-1.1%
2,O=C(O)C(C(=O)Oc1ccccc1)C(C(=O)O)C(=O)Oc1ccccc1 (stereo not drawn),45%
3,CN1CCN(C(=S)c2ccc([N+](=O)[O-])cc2)CC1,9.47%
4,O=C(CSc1n[nH]c(=O)n1C1CC1)Nc1ccccc1,17.3%
5,CCOC(=O)C(C)Sc1nc2c(cnn2-c2ccc(C)cc2)c(=O)[nH]1 (stereo not drawn),10.9%
6,CCC(NC(=O)NC1=NCCS1)(C(F)(F)F)C(F)(F)F,6.68%
7,COC(=O)c1ccc(N2CCN(c3ccccc3)CC2)c(N)c1,10.8%
8,O=C(COc1ccc(Br)cc1Cl)N1CCN(c2ccccn2)CC1,-27.2%
9,O=C(NCCC1CCCCN1S(=O)(=O)c1ccccc1)C(=O)Nc1ccccc1F (stereo not drawn),5.77%
10,N#Cc1sc(NCc2cccc(Cl)c2)nc1Cl,4.01%
11,O=C(Nc1ccc(NC(=O)c2cc([N+](=O)[O-])ccc2N2CCOCC2)cc1)c1cccs1,-23%
12,Cn1nc(C(F)(F)F)c(C(=O)Nc2ccc(F)cc2)c1Cl,11.1%
13,CCn1ncc(/C=C/C(=O)c2ccccc2)c1C,5.83%
14,CN(C)N1C(N)=C(C#N)C(c2cccs2)C2=C1CC(C)(C)CC2=O (stereo not drawn),2.14%
15,Cc1cc(C)cc(C(=O)N(c2ccccn2)C(C)c2ccco2)c1 (stereo not drawn),14.1%
16,Cn1nc(C(=O)OCCN2C(=O)c3ccccc3C2=O)c2ccccc2c1=O,-11.5%
17,CN(CCC1CCOCC1)Cc1nc(Cc2ccccc2F)no1,9.87%
18,CCOC(=O)c1nn(-c2cccc(C)c2)cc1C(=O)c1ccccc1,-25.5%
19,O=C(N/N=C/c1cccc(F)c1)c1c(O)c2ccccc2[nH]c1=O,10.3%
20,Cc1c(NC(=O)C(C)NCC2CCCO2)c(=O)n(-c2ccccc2)n1C (stereo not drawn),9.75%
21,COc1ccc(NC2=Nc3cccc4cccc2c34)cc1OC,4.7%
22,Cc1cccc(NC(=O)C2CCC(CNC(=O)[C@@H]3Cc4ccccc4CN3)CC2)c1 (stereo partly drawn),-2.36%
23,CCCCC(=O)NC(=S)Nc1ccc(S(=O)(=O)N2CCCC2)cc1,-2.83%

row,SMILES,"hERG current change (%, negative = inhibition) at 10uM"
1,CCCCOc1ccc(S(=O)(=O)N2CCN(c3ccc(N4CCN(CC)CC4)nn3)CC2)cc1,14.5%
2,CS(=O)(=O)N(CC(=O)Nc1ccccc1-c1ccccc1)c1ccccc1,-0.135%
3,O=C(O)CC/C(=N\Nc1ccc([N+](=O)[O-])cc1)c1ccccc1,13%
4,COc1ccc(NC(=O)c2cc(-c3ccco3)nc3ccccc23)cc1,4.77%
5,Cc1cc(C)nc(/N=C(\N)Nc2ccccc2-c2ccccc2)n1,-43.2%
6,COc1ccccc1C(=O)NCCC(=O)Nc1ccc(S(=O)(=O)N2CCC(C)CC2)cc1,-15.2%
7,CCCCN(CC)C(=O)c1n[nH]c(=O)c2ccccc12,2.92%
8,COc1ccc(NS(=O)(=O)c2cccc(C(=O)NCC3(N4CCOCC4)CCCCC3)c2)cc1,-36.7%
9,CCc1ccccc1OCC(=O)OCC(=O)c1c(N)n(C)c(=O)n(C)c1=O,-53.6%
10,CCOc1ccc(C(=O)NCC(=O)Nc2ncccc2C)cc1OCC,18%
11,COCc1cc(C)nc(N2CCOCC2)c1C#N,8.82%
12,Cc1cccc2sc(NC(=O)CN(C)S(=O)(=O)c3cccs3)nc12,-24.6%
13,Cn1nc(C(=O)NNC(=O)c2ccc(Cl)c(S(N)(=O)=O)c2)c2ccccc2c1=O,3.97%
14,COc1cc2c(C(=O)N3CCN(Cc4ccc5c(c4)OCO5)CC3)cn(C)c(=O)c2cc1OC,-21.4%
15,COc1ccc(NC(=O)CCOc2ccccc2)c(OC)c1,1.87%
16,CCCCOc1ccc(CN2CCSCC2)cc1,16%
17,COc1cccc(COc2ccc3ccc(=O)oc3c2)c1,10.9%
18,Cn1cccc1/C=C1\SC(=S)N(CC(=O)O)C1=O,1.83%
19,O=C(NCCCSc1ccccc1)c1cccnc1,-6.81%
20,COc1cc(C(=O)O)nc(OC)n1,20.7%
21,Cc1onc(-c2ccccc2)c1C(=O)NC(=S)NNC(=O)c1cccnc1,6.64%
22,COc1cc(OC)c(N(C)S(=O)(=O)c2cccc(C(=O)Nc3nc(C)cs3)c2)cc1Cl,-0.605%
23,Cc1ccc(C)c(OCC(=O)NNC(=O)c2ccc(NC(=O)C3CC3)cc2)c1,13.8%

row,SMILES,"hERG current change (%, negative = inhibition) at 10uM"
1,CC1(C)C(c2cccs2)=[N+]([O-])C2(CCCCC/C2=N\NC(N)=O)N1O (stereo not drawn),9.16%
2,CC(C)NC(=O)c1ccccc1NC(=O)C1CC(=O)N(C(C)C)C1 (stereo not drawn),42.9%
3,O=C1CC2(CCN(C(=O)c3c(F)cccc3F)CC2)Oc2ccccc21,-34.2%
4,Fc1ccc(-n2nnc(-c3nccs3)n2)cc1,3.86%
5,Cn1c(=O)cc(OCC(=O)NC2CCCCC2)c2ccccc21,4.48%
6,Clc1ccccc1Nc1ncnc2c1nnn2Cc1ccccc1,4.81%
7,CCOC(=O)c1c(NC(=O)CCc2ccc(CC)o2)sc(C)c1C,1.97%
8,COc1cccc(N2CCN(Cc3cccnc3)CC2)c1,12.7%
9,COc1cc2c(cc1OC)C(C)N(C(=O)c1c(-c3ccccc3)noc1C)CC2 (stereo not drawn),12%
10,COc1ccc([C@@H]2CC(=O)c3c(O)cc(O)cc3O2)cc1O,5.19%
11,CC(=O)Nc1ccc(S(=O)(=O)N2CCN(C3CCCCCCC3)CC2)cc1.O=C(O)C(=O)O,-0.73%
12,CCn1c(SCC(=O)Nc2ccc(C)cc2)nc2nc3c(cc2c1=O)COC(C)(C)C3,-81.8%
13,CN1CCc2cc3c(c4c2C1Cc1ccccc1-4)OCO3 (stereo not drawn),-22.1%
14,O=C(NCc1ccccn1)C1CCN(S(=O)(=O)c2cc(Cl)ccc2Cl)CC1,5.58%
15,O=C(CCC(=O)N1CCOc2ccccc21)NCCCN1CCOCC1,5.91%
16,CSC1=NC(C)(C)C=C(/C=C/c2c(Cl)cccc2Cl)N1,16.9%
17,CCCn1c(SCC(=O)NC2CCCCC2)nnc1-c1ccccn1,-2.79%
18,O=C(O)c1cccc(CSc2nc(-c3ccc(Cl)cc3)cc(C(F)(F)F)n2)c1,-0.199%
19,CCOC(=O)COn1c(=O)c(-c2ccc(OCC)cc2)[n+]([O-])c2ccccc21,16.7%
20,CC(=O)c1cccc(NC(=O)CCN2C(=O)C3C4CCC(C4)C3C2=O)c1 (stereo not drawn),-13.9%
21,CCC(C)C(=O)Nc1ccc(OC)cc1OC (stereo not drawn),13.6%
